In PubChem BioAssay AID504832 (National Center for Advancing Translational Sciences (NCATS), 2011):
“And” between values parts separate entries of the source, which are not always exact repeats. Equal entries are not always repeated. The campaign covered roughly 310,000 compounds. About 18,000 (5.8%) were called active. Inconclusive means that the source gave no clear call. Such entries were picked first, then a sample of the others. The call rests on the fitted dose curve; in most records, active means well fitted inhibition curve with a large enough effect; inconclusive means small, poorly fitted or top-dose-only effect, or another doubt; inactive means no such curve, though single readings can be large or run the other way. Potencies of inconclusive entries are left out as doubtful fits.

experiment: Primary qHTS for delayed death inhibitors of the malarial parasite plastid, 48 hour incubation; conditions: P. falciparum luciferase growth in erythrocytes; series mostly up to 28.7 µM
Outline: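 Luciferase-expressing P. falciparum in infected erythrocytes (2% hematocrit, 0.1% parasitemia final) in RPMI 1640/0.5% Albumax were exposed to compound for 48 hours at 37 C, 5% CO2; growth read as luminescence.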
Potency means the concentration at half of the fitted maximal effect; tags describe the fitted curve by direction and shape.

**Q.** With CCCCC[n+]1ccn(C2=C([O-])c3ccccc3C(=O)/C2=N\S(=O)(=O)c2ccc(Br)cc2)c1 as the molecule, how does the Potency read?
**A.** active: 1.85 µM

**Q.** Which Potency does the source give for CC1=C(C)CC(C(=O)NCCCN2CCCC2=O)C(C(=O)O)C1 (configuration not stated) here?
**A.** inconclusive [inhibitor, single point]

**Q.** For O=[N+]([O-])c1cncc([N+](=O)[O-])c1Nc1cccc(O)c1, which Potency is on record?
**A.** inconclusive [inhibitor, single point]

**Q.** Which Potency does the source give for COc1ccc(CC(=O)Nc2ccc(C)c(S(=O)(=O)N3CCCCCC3)c2)cc1 here?
**A.** inconclusive [inhibitor, single point]

**Q.** For Cc1cccc2sc(N(CCN(C)C)C(=O)C3CCN(S(=O)(=O)c4cccs4)CC3)nc12, which Potency is on record?
**A.** active: 11.7 µM

**Q.** For Cc1ccc(C(=O)N2CCN(c3ccc(NC(=O)c4cc(C)cc(C)c4)cc3)CC2)cc1, which Potency is on record?
**A.** inconclusive [inhibitor, partial curve]

**Q.** With CCCC(=O)N(Cc1cc(=O)[nH]c2ccccc12)c1ccc(C)cc1 as the molecule, how does the Potency read?
**A.** inconclusive [inhibitor, partial curve, poor fit]

**Q.** With COCCCN=C1NN=C(c2cc(C)n(-c3ccccc3F)c2C)CS1 as the molecule, how does the Potency read?
**A.** inactive

**Q.** Which Potency does the source give for COc1ccc(S(=O)(=O)NCc2cc(-c3ccccc3Cl)no2)cc1 here?
**A.** active: 10.4 µM

**Q.** With Cc1ccn2c(=O)nc(SCC(=O)N3N=C(c4cccs4)CC3c3ccc(F)cc3)nc2c1 (configuration not stated) as the molecule, how does the Potency read?
**A.** inconclusive [inhibitor, single point]

**Q.** Which Potency does the source give for COc1ccc(C(=O)C2CCCN(C(=O)c3cccc(N(C)C)c3)C2)cc1OC (configuration not stated) here?
**A.** inconclusive [inhibitor, single point]

**Q.** Which Potency does the source give for O=C(O)C(Cc1ccccc1)Nc1ccc([N+](=O)[O-])cc1[N+](=O)[O-] (configuration not stated) here?
**A.** inconclusive [inhibitor, full curve]

**Q.** With Cc1cccc(/C(N)=N/OC(=O)CCCc2ccccc2)c1 as the molecule, how does the Potency read?
**A.** inactive

**Q.** With CCN(CC)C(=O)CSc1nnc(-c2ccc(S(=O)(=O)NCc3ccccc3Cl)cc2)o1 as the molecule, how does the Potency read?
**A.** inconclusive [inhibitor, full curve]

**Q.** With O=C(Cc1cccc(NC(=O)C2CCCN(C(=O)C3CCC3)C2)c1)Nc1cccc(C(=O)N2CCCC2)c1 (configuration not stated) as the molecule, how does the Potency read?
**A.** inconclusive [inhibitor, partial curve, poor fit]

**Q.** With COc1ccccc1OCCn1cc(/C=C(\C#N)C(=O)NCc2ccco2)c2ccccc21 as the molecule, how does the Potency read?
**A.** inconclusive [inhibitor, partial curve]

**Q.** With O=C(c1cccs1)N1CCN(C(=O)N2CCOCC2)CC1 as the molecule, how does the Potency read?
**A.** inactive

**Q.** With Cc1cccc(N2CCN(C(=O)CCCn3c(=O)c4cccn4c4cccnc43)CC2)c1C as the molecule, how does the Potency read?
**A.** inconclusive [inhibitor, partial curve]

**Q.** Which Potency does the source give for Cc1cccc(/C=C\c2nc3ccccc3c(=O)[nH]2)c1 here?
**A.** inactive

**Q.** With COc1cc(NCCCC(C)N)c2ncccc2c1 (configuration not stated) as the molecule, how does the Potency read?
**A.** active: 1.35 µM and active: 262 nM

**Q.** For Cc1cc(N2CCCC2)n2nc(C)nc2n1, which Potency is on record?
**A.** inactive

**Q.** Which Potency does the source give for O=C(NNS(=O)(=O)c1ccc(F)cc1)c1cc(Cl)ccc1O here?
**A.** inactive

**Q.** With CN(C)CC(O)COC(c1ccc(Cl)cc1)c1ccc(Cl)cc1 (configuration not stated) as the molecule, how does the Potency read?
**A.** inconclusive [inhibitor, single point]

**Q.** With Cn1cnnc1SCC(=O)Nc1ccc(OC(F)F)cc1 as the molecule, how does the Potency read?
**A.** active: 13.1 µM

**Q.** Which Potency does the source give for O=C1C(Nc2ccccc2)=C(N2CCCCC2)C(=O)c2ccccc21 here?
**A.** active: 0.465 µM

**Q.** With COC(=O)C(NC(=O)c1ccco1)(Nc1ccc(Br)cn1)C(F)(F)F (configuration not stated) as the molecule, how does the Potency read?
**A.** inconclusive [inhibitor, single point]

**Q.** For Cc1ccc(O)c(Cn2nnc3ccccc32)c1, which Potency is on record?
**A.** active: 10.4 µM

**Q.** Which Potency does the source give for COc1ccc(CNC(=O)CCSCc2cccc(Cl)c2)cc1 here?
**A.** inactive

**Q.** Which Potency does the source give for CC1CCN(C2(O)C(=O)Nc3ccc([N+](=O)[O-])cc32)CC1 (configuration not stated) here?
**A.** inactive

**Q.** For CCOC(=O)c1c(CN2CCCCC2)n(C)c2ccc(OC)c(S(=O)(=O)c3ccccc3)c12, which Potency is on record?
**A.** active: 10.4 µM

**Q.** For CC(Nc1nc(N2CCCC2)nc2ccccc12)c1ccccc1 (configuration not stated), which Potency is on record?
**A.** active: 3.7 µM

**Q.** Which Potency does the source give for O=c1cc(NC2CCCCC2)c2ccccc2o1 here?
**A.** inconclusive [inhibitor, partial curve]

**Q.** Which Potency does the source give for CC1(C)OC(C)(C)/C(=C/Nc2ccc(O)cc2)C1=O here?
**A.** inconclusive [inhibitor, full curve, poor fit]

**Q.** With Cc1cc(C)c(NC(=O)c2c[nH]c(=S)n2-c2ccc(F)cc2)c(C)c1 as the molecule, how does the Potency read?
**A.** inconclusive [inhibitor, partial curve]

**Q.** For NC(=O)CS(=O)C(c1ccccc1)c1ccccc1 (configuration not stated), which Potency is on record?
**A.** inactive

**Q.** For CC1(NC(=O)CC(c2ccccc2)(c2ccccc2)c2ccccc2)CCN(CCCc2ccccc2)C1=O (configuration not stated), which Potency is on record?
**A.** inconclusive [inhibitor, partial curve]

**Q.** For COc1cc2cc(C(c3nnnn3C3CCCC3)N(C)C3CCCCC3)c(=O)[nH]c2cc1OC (configuration not stated), which Potency is on record?
**A.** inconclusive [inhibitor, single point]

**Q.** With Cc1cc(NC(=O)c2c([N+](=O)[O-])cnn2C)no1 as the molecule, how does the Potency read?
**A.** inactive

**Q.** Which Potency does the source give for O=C(Nc1nccs1)c1nc[nH]c1C(=O)NCc1ccccc1 here?
**A.** inconclusive [inhibitor, single point]

**Q.** For CCN(CC)CCN(C(=O)/C=C/c1cccs1)c1nc2ccc(C)cc2s1, which Potency is on record?
**A.** inconclusive [inhibitor, single point]

**Q.** For C=CC(=O)Nc1sc2c(c1C(N)=O)CCCC2, which Potency is on record?
**A.** inconclusive [inhibitor, single point]

**Q.** Which Potency does the source give for Clc1cccc(CN2C3=NCCCN3c3ccccc32)c1 here?
**A.** inactive

**Q.** Which Potency does the source give for Cc1cccc(-[n+]2c(-c3cccc(Br)c3)[nH]c3nc4ccccc4nc32)c1 here?
**A.** active: 13.1 µM

**Q.** With CCCn1c(C)c(C(=O)c2cccc3ccccc23)c2ccccc21 as the molecule, how does the Potency read?
**A.** inconclusive [inhibitor, single point]

**Q.** Which Potency does the source give for Cc1cccn2c(CNCC3OCCc4ccccc43)c(C(=O)N3CCCCC3)nc12 (configuration not stated) here?
**A.** inconclusive [inhibitor, partial curve, poor fit]

**Q.** With CCN(CC)C(=O)CSc1nnc2sc3ccccc3n12 as the molecule, how does the Potency read?
**A.** inactive

**Q.** With CC(NC(=O)c1cc(-c2cccnc2)nc2ccc(Br)cc12)C1CCCO1 (configuration not stated) as the molecule, how does the Potency read?
**A.** inactive
